Reference: the supplement of paper PMC11171410
Where a name gives a salt, the structure may show the parent alone. Most values come without repeats; read them as rough. *1 amine or outer side, *2 acyl side, *3 side chain or, on linkers, in order; H or OH if unused. Where a SMILES comes first, the peptide text is derived from it. Bridges are numbered along the chain shown (N, C = ends). Roman numbers before positions name the chains, in order. [ ]: non-standard residue; d: D form. Actinocin(9to1) = Cc1c2oc3c(C)ccc(C(=O)[*:1])c3nc-2c(C(=O)[*:2])c(N)c1=O; NMeV = CN[C@H](C(=O)O)C(C)C; Sar = CNCC(=O)O

How the values were obtained:
[1] = test system: SUDHL6 parental; experiment: estimated IC50 (cell viability); higher = less potent
[2] = test system: SUDHL6 venetoclax-resistant; experiment: as above
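Further: compound screen comparing venetoclax-resistant SUDHL6, derived by months of escalating venetoclax exposure, with its matched parental line, IC50 from one-site nonlinear dose–response fit, geometric mean for duplicated compounds.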

SMILES | estimated IC50 [1] | estimated IC50 [2]
C=CC(=O)Nc1cc(Nc2nccc(-c3c[nH]c4ccccc34)n2)c(OC)cc1N(C)CCN(C)C [AZ5104] | 7.28 µM | 3.42 µM
Cc1cc(Nc2nc(N[C@@H](C)c3ccc(F)cc3)c(C#N)cc2F)n[nH]1 [AZ 960] | > 10 µM | 1.06 µM
Cc1ncc(-c2ccnc(Nc3ccc(S(C)(=O)=O)cc3)n2)n1C(C)C [AZD5438] | 6.2 µM | 3.9 µM
Cc1cc([C@@H](C)Nc2ccccc2C(=O)O)c2nc(N3CCOCC3)cc(=O)n2c1 [AZD6482] | > 10 µM | 2.01 µM
NC(=O)Nc1cc(-c2cccc(F)c2)sc1C(=O)N[C@H]1CCCNC1 [AZD7762] | 0.6 µM | 0.3 µM
C[C@@H](Nc1cc(F)cc(F)c1)c1cc(C(=O)N(C)C)cc2c(=O)cc(N3CCOCC3)oc12 [AZD8186] | 4.6 µM | 0.8 µM
CCn1nc(C2CCN(C(=O)CCO)CC2)nc1-c1cnc(N)c(-c2nnc(C(C)(C)C)o2)n1 [AZD8835] | > 10 µM | 2.86 µM
C=CCn1c(=O)c2cnc(Nc3ccc(N4CCN(C)CC4)cc3)nc2n1-c1cccc(C(C)(C)O)n1 [Adavosertib ?MK-1775?] | 5.71 µM | 3.6 µM
CN(C)C/C=C/C(=O)Nc1cc2c(Nc3ccc(F)c(Cl)c3)ncnc2cc1O[C@H]1CCOC1 [Afatinib (BIBW2992)] | 7.88 µM | 1.92 µM
Cc1noc(C)c1-c1cc(C(O)(c2ccccn2)c2ccccn2)c2nc(C3CC3)[nH]c2c1 [Alobresib (GS-5829)] | 0.39 µM | 0.18 µM
Cc1nc(NC(=O)N2CCC[C@H]2C(N)=O)sc1-c1ccnc(C(C)(C)C(F)(F)F)c1 [Alpelisib (BYL719)] | > 10 µM | 5.48 µM
COc1cc(NS(C)(=O)=O)ccc1Nc1c2ccccc2nc2ccccc12 [Amsacrine hydrochloride] | 7.03 µM | 3.74 µM
COc1cc2c(Oc3ccc4[nH]c(C)cc4c3F)ccnc2cc1OCC1(N)CC1 [Anlotinib (AL3818) dihydrochloride] | 7.14 µM | 4.26 µM
Cc1c(CN2CCN(C(=O)[C@H](C)O)CC2)sc2c(N3CCOCC3)nc(-c3cnc(N)nc3)nc12 [Apitolisib (GDC-0980, RG7422)] | 8.1 µM | 2.7 µM
C=CC(=O)Nc1cccc(Oc2nc(Nc3ccc(N4CCN(C)CC4)c(F)c3)nc3[nH]ccc23)c1 [Avitinib (AC0010)] | 7.93 µM | 4.25 µM
CNC(=O)c1ccccc1Sc1ccc2c(/C=C/c3ccccn3)n[nH]c2c1 [Axitinib] | 8.51 µM | 2.61 µM
Cc1cc(-c2nc(-c3ccc(OC(F)(F)F)cc3)no2)nn1Cc1ccnc(N2CCN(C3CC3)CC2)c1 [BAY 87-2243] | 0.01 µM | 0.005 µM
COc1ccc(-c2ccc3ncc4c(c3c2)n(-c2ccc(N3CCNCC3)c(C(F)(F)F)c2)c(=O)n4C)cn1 [BGT226 (NVP-BGT226)] | 0.1 µM | 0.03 µM
CC[C@@H]1C(=O)N(C)c2cnc(Nc3ccc(C(=O)NC4CCN(C)CC4)cc3OC)nc2N1C1CCCC1 [BI 2536] | 0.12 µM | 0.04 µM

SMILES | estimated IC50 [1] | estimated IC50 [2]
COc1c(C)cnc(Cn2cnc3c(Cl)nc(N)nc32)c1C [BIIB021] | 4.01 µM | 1.03 µM
O=C(Nc1cccc(Nc2ncc(Br)c(NCCc3cnc[nH]3)n2)c1)N1CCCC1 [BX-912] | 9.64 µM | 5.57 µM
C=C[C@@](C)(/C=C/c1ccc(O)cc1)CCC=C(C)C [Bakuchiol] | 4.77 µM | 2.58 µM
Nc1cc(C(F)(F)F)c(-c2nc(N3CCOCC3)nc(N3CCOCC3)n2)cn1 [Bimiralisib (PQR309)] | 3.11 µM | 1.92 µM
Cn1cc(C2=C(c3cn(CCCSC(=N)N)c4ccccc34)C(=O)NC2=O)c2ccccc21 [Bisindolylmaleimide IX (Ro 31-8220 Mesylate)] | 6.1 µM | 3.9 µM
C=CC(=O)Nc1ccc2[nH]c(=O)n(C3CCN(Cc4ccc(-c5nc6cc[nH]c(=O)c6cc5-c5ccccc5)cc4)CC3)c2c1 [Borussertib] | 5.32 µM | 0.72 µM
CC1(C)CC(Oc2ccc(-c3ccc(-c4cn[nH]c4)cc3O)nn2)CC(C)(C)N1 [Branaplam (LMI070)] | 6.06 µM | 0.34 µM
COc1cc(OC)c(/C=C/S(=O)(=O)Cc2ccc(OC)c(OP(=O)(O)O)c2)c(OC)c1 [Briciclib] | 0.059 µM | 0.039 µM
Nc1cc(C(F)(F)F)c(-c2cc(N3CCOCC3)nc(N3CCOCC3)n2)cn1 [Buparlisib (BKM120, NVP-BKM120)] | 4.5 µM | 2.23 µM
O=C(Cc1cccc(OC(F)(F)F)c1)Nc1ccc(CCCCc2nnc(NC(=O)Cc3ccccn3)s2)nn1 [CB-839] | 2.46 µM | 1.23 µM
Cc1cc2c(C(N)=O)cccc2n1-c1nc2c(c(NCc3ccccc3)n1)COCC2 [CB-5083] | 0.48 µM | 0.32 µM
CC1(C)CC[C@]2(C(=O)n3ccnc3)CC[C@]3(C)[C@H](C(=O)C=C4[C@@]5(C)C=C(C#N)C(=O)C(C)(C)[C@@H]5CC[C@]43C)[C@@H]2C1 [CDDO-Im] | 3.41 µM | 2 µM
O=C(NC(NC(=S)Nc1ccc(F)c([N+](=O)[O-])c1)C(Cl)(Cl)Cl)C(c1ccccc1)c1ccccc1 (centres undefined) [CGK 733] | > 10 µM | 3.4 µM
O=c1[nH]c2ccc(Cl)cc2c(N[C@@H]2CN3CCC2CC3)c1-c1nc2ccccc2[nH]1 [CHIR-124] | 4.5 µM | 3 µM
COc1ccc(-c2nc(N3CCOCC3)c3sc(CN(C)c4ncc(C(=O)NO)cn4)cc3n2)cn1 [CUDC-907] | 0.03 µM | 0.02 µM
COc1ccc(CNc2nc(N(CCO)CCO)nc3c2ncn3C(C)C)cc1 [CVT-313] | 4.7 µM | 2.5 µM
Cc1nc(N)sc1-c1ccnc(Nc2ccc(N3CCOCC3)cc2)n1 [CYC116] | 5.45 µM | 1.75 µM
CCNC(=O)Nc1ccc(-c2nc(N3CCOC[C@@H]3C)c3c(n2)C(C)(C)S(=O)(=O)C3)cc1 [CZ415] | 1.33 µM | 0.66 µM
CO[C@H]1C(=O)[C@]2(C)[C@@H](OC)C[C@H]3OC[C@@]3(OC(C)=O)[C@H]2[C@H](OC(=O)c2ccccc2)[C@]2(O)C[C@H](OC(=O)[C@H](O)[C@@H](NC(=O)OC(C)(C)C)c3ccccc3)C(C)=C1C2(C)C [Cabazitaxel] | 0.083 µM | 0.0168 µM

SMILES | estimated IC50 [1] | estimated IC50 [2]
O=C(/C=C/c1ccc(O)c(O)c1)OCCc1ccccc1 [Caffeic Acid Phenethyl Ester] | 8.08 µM | 3.62 µM
Nc1nc(Cl)nc2c1ncn2[C@@H]1O[C@H](CO)[C@@H](O)[C@@H]1F [Clofarabine] | 6.98 µM | 3.34 µM
COc1cc2c(c(OC)c1OC)-c1ccc(OC)c(=O)cc1[C@@H](NC(C)=O)CC2 [Colchicine] | 0.0672 µM | 0.0396 µM
Nc1cccc(S(=O)(=O)N2CCCN(S(=O)(=O)c3ccc4c(c3)OCCO4)CC2)c1 [DASA-58] | 8.03 µM | 3.9 µM
Cc1ccc(CNc2ccc(Cl)cc2NCc2ccc(C)c(O)c2)cc1O [DRB18] | 9.78 µM | 6.19 µM
Cc1c2oc3c(C)ccc(C(=O)N[C@@H]4C(=O)N[C@H](C(C)C)C(=O)N5CCC[C@H]5C(=O)N(C)CC(=O)N(C)[C@@H](C(C)C)C(=O)O[C@@H]4C)c3nc-2c(C(=O)N[C@@H]2C(=O)N[C@H](C(C)C)C(=O)N3CCC[C@H]3C(=O)N(C)CC(=O)N(C)[C@@H](C(C)C)C(=O)O[C@@H]2C)c(N)c1=O [Dactinomycin] (I: T[dV]P[Sar][NMeV] / II: T[dV]P[Sar][NMeV]; ester I:1-I:C, II:1-II:C; linker I:N-II:N via Actinocin(9to1)) | > 10 µM | 2.26 µM
Cc1cc(C)c(Nc2ccnc(Nc3ccc(C#N)cc3)n2)c(C)c1 [Dapivirine (TMC120)] | 8.36 µM | 4.64 µM
Cc1nc(Nc2ncc(C(=O)Nc3c(C)cccc3Cl)s2)cc(N2CCN(CCO)CC2)n1 [Dasatinib] | 0.29 µM | 0.1 µM
COc1cccc2c1C(=O)c1c(O)c3c(c(O)c1C2=O)C[C@@](O)(C(C)=O)C[C@@H]3O[C@H]1C[C@H](N)[C@H](O)[C@H](C)O1 [Daunorubicin HCl] | 0.69 µM | 0.32 µM
COc1cccc2c1C(=O)c1c(O)c3c(c(O)c1C2=O)C[C@@](O)(C(C)=O)C[C@@H]3O[C@H]1C[C@H](N)[C@H](O)[C@H](C)O1 [Daunorubicin hydrochloride] | > 10 µM | 6.23 µM
O=C(O)c1ccc(-n2nc(-c3ccccc3O)nc2-c2ccccc2O)cc1 [Deferasirox] | 8.8 µM | 5.2 µM
CNC(=O)c1cc(Oc2ccc(NC(=O)Nc3ccc(Cl)c(C(F)(F)F)c3)cc2)ccn1 [Donafenib (Sorafenib D3)] | 6.17 µM | 2.23 µM
CN(C)C(=S)NN=C(c1ccccn1)c1ccccn1 [Dp44mT] | 0.083 µM | 0.043 µM
CCCCc1oc2ccc(NS(C)(=O)=O)cc2c1C(=O)c1ccc(OCCCN(CCCC)CCCC)cc1 [Dronedarone HCl] | 6.2 µM | 3 µM
C[C@H](Nc1ncnc2nc[nH]c12)c1cc2cccc(Cl)c2c(=O)n1-c1ccccc1 [Duvelisib (IPI-145, INK1197)] | 0.385 µM | 0.104 µM
C[C@H](Nc1ncnc2nc[nH]c12)c1cc2cccc(Cl)c2c(=O)n1-c1ccccc1 [Duvelisib (R enantiomer)] | > 10 µM | 6.41 µM
Cc1cc(Nc2cc(N3CCN(C)CC3)nc(/C=C/c3ccccc3)n2)n[nH]1 [ENMD-2076] | 6.28 µM | 4 µM
CCOc1cc(C(=O)N2CCC(N3CCN(C)CC3)CC2)ccc1Nc1ncc2c(n1)N(C1CCCC1)c1ccccc1C(=O)N2C [ERK5-IN-1] | > 10 µM | 4.6 µM
CC/C(=C(\c1ccc(O)cc1)c1ccc(OCCNC)cc1)c1ccccc1 [Endoxifen HCl] | > 10 µM | 3.58 µM
